Only a part is listed here, and it is no random draw. The list includes weakly bound sequences.

What all share (assay): protein-binding microarray (PBM)
Holding throughout (details): PBM: ~300 nM protein, 6 mM HEPES pH 7.8, 80 mM KCl, 0.5 mM EDTA, 0.5 mM EGTA, 6% glycerol, 35 ng/ul poly-dIdC, 1% milk, 1 h, room temperature; Ap Aiptasia and Nv Nematostella (sea anemones) / Co Capsaspora / Aq Amphimedon (sponge) / Dm Drosophila / Hu human; RHD is the Rel homology domain; high values mean tight binding; most listed sequences are background and not binding sites; double strand, one strand shown

The target of assay [1] is T1, GST-Ap-NF-kB RHD (UniProt A0A913YAJ5).
T1 sequence: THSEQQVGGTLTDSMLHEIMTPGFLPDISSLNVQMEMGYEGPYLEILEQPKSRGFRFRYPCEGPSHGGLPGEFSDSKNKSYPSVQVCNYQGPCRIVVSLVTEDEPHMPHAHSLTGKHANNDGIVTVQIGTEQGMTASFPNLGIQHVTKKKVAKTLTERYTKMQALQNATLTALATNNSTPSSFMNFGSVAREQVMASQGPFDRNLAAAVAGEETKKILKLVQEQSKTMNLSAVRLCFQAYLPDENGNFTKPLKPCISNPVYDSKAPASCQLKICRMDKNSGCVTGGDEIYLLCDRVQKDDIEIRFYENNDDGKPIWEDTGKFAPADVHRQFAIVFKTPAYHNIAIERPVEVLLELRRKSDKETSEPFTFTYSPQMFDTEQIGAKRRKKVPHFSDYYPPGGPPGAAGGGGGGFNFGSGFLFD

The target of assay [2] is T2, GST-Nv-NF-kB (Cys allele) (UniProt E5G601).
T2 sequence: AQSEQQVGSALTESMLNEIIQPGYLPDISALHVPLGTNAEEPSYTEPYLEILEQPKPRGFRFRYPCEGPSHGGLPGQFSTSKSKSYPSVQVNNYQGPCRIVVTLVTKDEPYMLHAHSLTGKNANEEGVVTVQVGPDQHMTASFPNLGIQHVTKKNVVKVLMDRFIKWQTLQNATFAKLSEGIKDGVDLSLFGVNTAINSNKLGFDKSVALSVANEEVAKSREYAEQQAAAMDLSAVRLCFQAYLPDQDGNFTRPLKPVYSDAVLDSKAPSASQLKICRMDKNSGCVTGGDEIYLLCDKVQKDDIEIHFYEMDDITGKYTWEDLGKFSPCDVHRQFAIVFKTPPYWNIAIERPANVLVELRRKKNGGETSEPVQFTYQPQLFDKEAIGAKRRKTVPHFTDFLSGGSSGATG

Assay [3] deals with T3, GST-Co-NF-kB (UniProt F1ARL5).
T3 sequence: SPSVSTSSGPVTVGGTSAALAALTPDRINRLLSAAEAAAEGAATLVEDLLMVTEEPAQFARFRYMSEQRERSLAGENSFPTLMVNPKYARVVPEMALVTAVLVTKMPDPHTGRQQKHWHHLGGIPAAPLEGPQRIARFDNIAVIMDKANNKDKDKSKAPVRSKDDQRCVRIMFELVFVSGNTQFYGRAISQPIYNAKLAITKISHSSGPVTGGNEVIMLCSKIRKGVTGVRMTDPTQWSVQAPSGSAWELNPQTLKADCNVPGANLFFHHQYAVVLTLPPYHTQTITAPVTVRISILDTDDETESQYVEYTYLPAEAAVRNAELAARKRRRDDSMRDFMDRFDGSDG

The target in assay [4] is T4, GST-Dm-Relish (UniProt Q94527).
T4 sequence: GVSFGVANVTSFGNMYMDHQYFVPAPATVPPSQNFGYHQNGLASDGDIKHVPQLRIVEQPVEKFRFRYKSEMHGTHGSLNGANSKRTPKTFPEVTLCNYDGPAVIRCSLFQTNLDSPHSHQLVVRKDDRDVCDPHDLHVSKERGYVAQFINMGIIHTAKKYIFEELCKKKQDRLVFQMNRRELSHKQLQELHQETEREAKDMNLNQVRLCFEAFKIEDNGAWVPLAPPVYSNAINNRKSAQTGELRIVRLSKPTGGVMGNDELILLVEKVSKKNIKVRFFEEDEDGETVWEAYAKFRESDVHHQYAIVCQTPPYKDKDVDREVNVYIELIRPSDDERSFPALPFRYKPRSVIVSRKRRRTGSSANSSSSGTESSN

Regarding “CCGATTAACATCAGCAACCCCCCTGATGTTAATCGGGTCTTGATTCGCTTGACGCTGCTG”, the binding signal in assay [1] is 5.04 z-score; in assay [2] it was 3.58 z-score; in assay [3] it was 2.82 z-score; in assay [4], 6.14 z-score.
In the same order, the values of “CCGATTAACATCATAGTGAGGGGTGATGTTAATCGGGTCTTGATTCGCTTGACGCTGCTG” are 2.05 z-score, 0.879 z-score, 1.74 z-score and 0.465 z-score.
As for “CCGATTAACATCAAAAAATTTTCTGATGTTAATCGGGTCTTGATTCGCTTGACGCTGCTG”, the binding signal in assay [1] is -0.0832 z-score; in assay [2] it was 0.636 z-score; in assay [3] it was -0.54 z-score; in assay [4], 2.72 z-score.
Take “CCGATTAACATCAGGGAATCCACTGATGTTAATCGGGTCTTGATTCGCTTGACGCTGCTG”: the binding signal stood at 3.05 z-score in assay [1], 3.31 z-score in assay [2], 2.25 z-score in assay [3] and 7.85 z-score in assay [4].
In the same order, the values of “CCGATTAACATCACGGAAGTTCCTGATGTTAATCGGGTCTTGATTCGCTTGACGCTGCTG” are 0.234 z-score, 0.0581 z-score, 0.00567 z-score and 0.619 z-score.
As for “CCGATTAACATCAGGAAATGTCCTGATGTTAATCGGGTCTTGATTCGCTTGACGCTGCTG”, the binding signal is -0.416 z-score in assay [1], -0.442 z-score in assay [2], -0.501 z-score in assay [3] and -0.21 z-score in assay [4].
“CCGATTAACATCAAGGAAAATCCTGATGTTAATCGGGTCTTGATTCGCTTGACGCTGCTG”: the binding signal in assay [1] is 0.346 z-score; in assay [2], 0.138 z-score; in assay [3], 0.839 z-score; in assay [4] it was 1.5 z-score.
For the sequence “CCGATTAACATCAGGAAAACTCCTGATGTTAATCGGGTCTTGATTCGCTTGACGCTGCTG”, the binding signal in assay [1] was -0.359 z-score; in assay [2] it was 0.336 z-score; in assay [3], -0.417 z-score; in assay [4] it was 0.99 z-score.
The matching figures for “CCGATTAACATCACGGAGATTCCTGATGTTAATCGGGTCTTGATTCGCTTGACGCTGCTG”: 0.00102 z-score, 0.168 z-score, 0.173 z-score and 0.486 z-score.
As for “CCGATTAACATCAGGGAAAGCTATGATGTTAATCGGGTCTTGATTCGCTTGACGCTGCTG”, the binding signal is 2.11 z-score in assay [1], 3.99 z-score in assay [2] and 0.107 z-score in assay [4].
Consider “CCGATTAACATCAGAATTTCCCCTGATGTTAATCGGGTCTTGATTCGCTTGACGCTGCTG”, for which the binding signal in assay [1] amounted to 9.18 z-score; in assay [2] it was 10.1 z-score; in assay [4] it was 6.98 z-score.
The matching figures for “CCGATTAACATCAGGGGAGAAACTGATGTTAATCGGGTCTTGATTCGCTTGACGCTGCTG”: 4.39 z-score, 4.53 z-score and 5.35 z-score.
For the sequence “CCGATTAACATCAATTACCCCCCTGATGTTAATCGGGTCTTGATTCGCTTGACGCTGCTG”, the binding signal in assay [1] stood at 5.96 z-score; in assay [2] it was 4.69 z-score; in assay [4], 4.49 z-score.
The matching figures for “CCGATTAACATCAGGGTTAGTTGTGATGTTAATCGGGTCTTGATTCGCTTGACGCTGCTG”: 0.84 z-score, 0.73 z-score and 0.532 z-score.
In the same order, the values of “CCGATTAACATCAGGGGGAATCATGATGTTAATCGGGTCTTGATTCGCTTGACGCTGCTG” are 8.02 z-score, 7.33 z-score and 6.2 z-score.
For “CCGATTAACATCAGGAATAGCCCTGATGTTAATCGGGTCTTGATTCGCTTGACGCTGCTG”, the binding signal in assay [1] is -0.245 z-score; in assay [2], -0.242 z-score; in assay [3] it was -0.182 z-score; in assay [4], -0.24 z-score.
For the sequence “CCGATTAACATCAGAAAACCCCATGATGTTAATCGGGTCTTGATTCGCTTGACGCTGCTG”, the binding signal is 6.36 z-score in assay [1], 5.53 z-score in assay [2] and 8.35 z-score in assay [4].
For “CCGATTAACATCACAAATGGGAATGATGTTAATCGGGTCTTGATTCGCTTGACGCTGCTG”, the binding signal was 0.21 z-score in assay [1], 1.95 z-score in assay [2] and 1.56 z-score in assay [4].
The matching figures for “CCGATTAACATCAGGGGAATTACTGATGTTAATCGGGTCTTGATTCGCTTGACGCTGCTG”: 8.73 z-score, 10.6 z-score and 10.2 z-score.
In the case of “CCGATTAACATCAGGGGAGTGTATGATGTTAATCGGGTCTTGATTCGCTTGACGCTGCTG”, the values for the binding signal in assay [1], in assay [2] and in assay [4] were 3.6 z-score, 3.38 z-score and 0.608 z-score, respectively.
Turning to “CCGATTAACATCAGGATACCCCCTGATGTTAATCGGGTCTTGATTCGCTTGACGCTGCTG”, the binding signal in assay [1] stood at 7.7 z-score; in assay [2] it was 4.68 z-score; in assay [4] it was 5.79 z-score.
For the sequence “CCGATTAACATCAGGAAAATCCATGATGTTAATCGGGTCTTGATTCGCTTGACGCTGCTG”, the binding signal in assay [1] is -0.237 z-score; in assay [2], 0.0235 z-score; in assay [3], 0.171 z-score; in assay [4], 1.26 z-score.
Take “CCGATTAACATCAAAATATTCCGTGATGTTAATCGGGTCTTGATTCGCTTGACGCTGCTG”: the binding signal was 0.0711 z-score in assay [1], -0.357 z-score in assay [2] and 0.839 z-score in assay [4].
The matching figures for “CCGATTAACATCAAAATTCCGGGTGATGTTAATCGGGTCTTGATTCGCTTGACGCTGCTG”: 0.764 z-score, 0.996 z-score and 1.53 z-score.
With “CCGATTAACATCAGGGAAGTTTATGATGTTAATCGGGTCTTGATTCGCTTGACGCTGCTG”, the binding signal in assay [1] stood at 4.29 z-score; in assay [2] it was 4.93 z-score; in assay [4], 3.35 z-score.
In the case of “CCGATTAACATCAGGGGAAAGACTGATGTTAATCGGGTCTTGATTCGCTTGACGCTGCTG”, the figures for the binding signal in assay [1], in assay [2] and in assay [4] were 4.98 z-score, 6.57 z-score and 6.16 z-score, respectively.
The matching figures for “CCGATTAACATCAATTCCCATGATGATGTTAATCGGGTCTTGATTCGCTTGACGCTGCTG”: 0.994 z-score, 2.46 z-score and 0.711 z-score.
The matching figures for “CCGATTAACATCACACTCCCCCCTGATGTTAATCGGGTCTTGATTCGCTTGACGCTGCTG”: 5.44 z-score, 4.08 z-score and 3.37 z-score.
With “CCGATTAACATCAGGGGAATTAATGATGTTAATCGGGTCTTGATTCGCTTGACGCTGCTG”, the binding signal in assay [1] was determined as 6.97 z-score; in assay [2] it was 9.44 z-score; in assay [4], 7.21 z-score.
